{"source": "PubChem BioAssay AID686979", "about": "(National Center for Advancing Translational Sciences (NCATS), 2013)", "note": "Screen size: about 420,000 compounds; about 50,000 (12%) were called active. The inconclusive results got no clear call from the source; some entries with a clear call stand among them for comparison. Calls come from the whole dose curve; as a rule, active = well fitted inhibition curve with a large enough effect; inconclusive = small, poorly fitted or top-dose-only effect; inactive = flat fitted curve, though single readings scatter. No potency is given beside an inconclusive call; the fits are too rough. % is set by controls: 0 for no effect and ±100 for the full control effect; potency is the fitted concentration of half-maximal effect; tags give direction and shape of the fitted curve.", "data": [{"assay": "qHTS for Inhibitors of human tyrosyl-DNA phosphodiesterase 1 (TDP1): qHTS in cells in presence of CPT; note: nearly all actives have a fitted effect of over 55% in size", "settings": "chicken DT40 Tdp1-/-;hTDP1 cells + 20 nM CPT, ATP luminescence, 48 h; activity change, negative = growth inhibition: at 46.2 µM (top of the series) unless noted", "summary_of_the_method": "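Chicken DT40 Tdp1-/- cells complemented with human TDP1, 400 cells/well, exposed to compounds plus 20 nM camptothecin for at least 48 h at 37 C; viability read as ATP content by CellTiter-Glo luminescence.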", "values": [{"smiles": "CCn1c(=O)c(C(=O)NNC(=O)c2ccccc2F)c(O)c2ccccc21", "Potency": "inconclusive [inhibitor, single point]"}, {"smiles": "COc1cc(C(=O)Nc2cccc(NC(=O)c3ccccc3)c2)cc(OC)c1OC", "Potency": "inconclusive [inhibitor, partial curve, poor fit]"}, {"smiles": "CCN(CC)c1ccc(NC(=O)COC(=O)C23CCC(=O)N2c2ccccc2S3)cc1", "note": "(configuration not stated)", "activity change, negative = growth inhibition": "inactive: -18.2%"}, {"smiles": "Cc1ccc(Cn2ccn(Cc3ccccc3F)c(=O)c2=O)cc1", "activity change, negative = growth inhibition": "inactive: -11.4%"}, {"smiles": "CCOC(=O)c1c(NC(=S)Nc2ccc(OCC)cc2)sc2c1CCN(C)C2", "activity change, negative = growth inhibition": "inactive: -28%"}, {"smiles": "O=C(CCN1C(=O)C2C3C=CC(C3)C2C1=O)NCCc1ccccc1", "note": "(configuration not stated)", "Potency": "inconclusive [inhibitor, single point]"}, {"smiles": "CC(C)(C)c1ccc(C(=O)Nc2nnc(SCC(=O)NCC3CCCO3)s2)cc1", "note": "(configuration not stated)", "Potency": "inconclusive [inhibitor, single point]"}, {"smiles": "CCOc1cc(Cl)c(S(=O)(=O)NCCCn2ccnc2)cc1Cl", "Potency": "active: 20.6 µM"}, {"smiles": "Cc1cccc(N2CCN(CCCNc3ncnc4onc(-c5ccc(Cl)cc5)c34)CC2C)c1", "note": "(configuration not stated)", "Potency": "inconclusive [inhibitor, single point]"}, {"smiles": "CCOc1ccccc1N(C)C(=O)C1CCN(S(=O)(=O)c2cccc3nonc23)CC1", "Potency": "inconclusive [inhibitor, single point]"}, {"smiles": "C=CCn1c(C)cc(C(=O)COc2ncnc3sccc23)c1C", "Potency": "inconclusive [inhibitor, partial curve]"}, {"smiles": "CCC(C)NC(=O)c1ccc2nc(-c3ccco3)c(-c3ccco3)nc2c1", "note": "(configuration not stated)", "Potency": "active: 15.8 µM"}, {"smiles": "Cc1c(Cl)cccc1NC(=O)COCc1cc(-c2ccc3c(c2)OCO3)on1", "Potency": "inconclusive [inhibitor, single point]"}, {"smiles": "Cn1cnnc1SCC(=O)Nc1sc2c(c1C#N)CCCCC2", "activity change, negative = growth inhibition": "inactive: -14.1%"}, {"smiles": "O=C(Nc1ccc(S(=O)(=O)N2CCN(Cc3ccccc3)CC2)cc1)c1cnccn1", "Potency": "active: 9.2 µM"}, {"smiles": "C/C(=N\\Nc1cc(-c2ccccc2)nc(-c2ccccc2)n1)c1ccc(O)c(C)c1", "Potency": "inconclusive [inhibitor, single point]"}, {"smiles": "COc1ccc(NC(=O)C2CCCN(S(C)(=O)=O)C2)cc1", "note": "(configuration not stated)", "activity change, negative = growth inhibition": "inactive: 17%"}, {"smiles": "Cc1nc2c(-c3ccccc3)c(C)nn2c(C)c1CCC(=O)N1CCN(c2ccc(F)cc2)CC1", "Potency": "inconclusive [inhibitor, single point]"}, {"smiles": "COc1cccc(CNC(=O)CCc2c(C)nc3c(c(C)nn3-c3ccc(C)c(C)c3)c2C)c1", "Potency": "active: 20.6 µM"}, {"smiles": "O=S(=O)(c1ccc(Cl)cc1)N1CCN(c2nc(C(F)(F)F)nc3ccccc23)CC1", "Potency": "inconclusive [inhibitor, single point]"}, {"smiles": "Cc1cc(F)ccc1S(=O)(=O)NCC(c1ccc2c(c1)OCO2)N1CCOCC1", "note": "(configuration not stated)", "activity change, negative = growth inhibition": "inactive: -0.852%"}, {"smiles": "CN(C)Cc1ccccc1-c1cncnc1NCc1cccnc1", "Potency": "inconclusive [inhibitor, single point]"}, {"smiles": "C=C(C)Cn1c(CCCNC(=O)C(C)(C)C)nc2ccccc21", "Potency": "active: 16.4 µM"}, {"smiles": "CCc1ccc(C(=O)NNC(=O)CCC2CCCCC2)cc1", "activity change, negative = growth inhibition": "inactive: 18%"}, {"smiles": "CN(C)c1ccc(-c2n(C)c3ccccc3[n+]2C)cc1", "Potency": "active: 1.64 µM"}, {"smiles": "Fc1ccccc1N1CCN(C(c2cccs2)c2nnnn2CCc2ccccc2)CC1", "note": "(configuration not stated)", "Potency": "inconclusive [inhibitor, single point]"}, {"smiles": "O=C(CS(=O)c1ccc(Br)cc1)N1CCOCC1", "note": "(configuration not stated)", "activity change, negative = growth inhibition": "inactive: 24.1%"}, {"smiles": "C[n+]1ccc(/C=C/c2cccs2)cc1", "activity change, negative = growth inhibition": "inactive: -18.7%"}, {"smiles": "O=c1[nH]cccc1-c1nc2ccccc2n1Cc1ccc(F)cc1", "activity change, negative = growth inhibition": "inactive: -29.3%"}, {"smiles": "O=C(Nc1ccc(Cl)cc1)C1Cc2c(-c3ccccc3Oc3ccccc3)ccnc2O1", "note": "(configuration not stated)", "Potency": "active: 23.1 µM"}, {"smiles": "CCn1c2ccccc2c2cc(NC(=O)CSc3nnc(-c4cccc(F)c4)o3)ccc21", "Potency": "active: 16.4 µM"}, {"smiles": "COC(=O)c1c(NC(=O)CN2CCN(c3ccccc3Cl)CC2)sc(C)c1C", "Potency": "inconclusive [inhibitor, single point]"}, {"smiles": "CC1CN(C(=O)c2cc(S(=O)(=O)N3CCCCC3)ccc2Cl)CC(C)O1", "note": "(configuration not stated)", "Potency": "active: 16.4 µM"}, {"smiles": "Cc1ccc(S(=O)(=O)NC2CC(=O)N(c3ccc4c(c3)OCCO4)C2)cc1", "note": "(configuration not stated)", "Potency": "inconclusive [inhibitor, single point]"}, {"smiles": "O=C(NCc1cccnc1)c1ccc(COc2ccc(Cl)cc2)cc1", "Potency": "active: 16.4 µM"}, {"smiles": "NS(=O)(=O)c1ccc(CCNC(=O)C2(S(=O)(=O)c3ccc(Cl)cc3)CC2)cc1", "activity change, negative = growth inhibition": "inactive: 19.9%"}, {"smiles": "Fc1cccc(Cc2c(C3CCCCC3)nc3ccc(Cl)cn23)c1", "Potency": "inconclusive [inhibitor, single point]"}, {"smiles": "COc1ccccc1CCn1c(=O)c(-c2cccc(Cl)c2)nc2cncnc21", "Potency": "inconclusive [inhibitor, single point]"}, {"smiles": "C=CCn1c(SCC(=O)N2CC(=O)Nc3ccccc32)nc2scc(-c3ccccc3)c2c1=O", "Potency": "inconclusive [inhibitor, single point]"}, {"smiles": "O=C(CCN1CCN(CC(=O)Nc2ccccc2F)CC1)Nc1ccccc1F", "Potency": "inconclusive [inhibitor, partial curve]"}, {"smiles": "CC(C)(C)NC(=O)C(c1cc2ccccc2o1)n1c(=O)c(-c2ccccc2)nc2ccccc21", "note": "(configuration not stated)", "Potency": "inconclusive [inhibitor, single point]"}, {"smiles": "Cc1cccc(-c2nc3cc(NC(=O)C4CCCO4)ccc3o2)c1", "note": "(configuration not stated)", "Potency": "inconclusive [inhibitor, single point]"}, {"smiles": "Cc1cc(NC(=O)CCC(=O)N(CCC(C)C)C(C(=O)NCC2CCCO2)c2ccccc2C)no1", "note": "(configuration not stated)", "activity change, negative = growth inhibition": "inactive: -11%"}, {"smiles": "CCc1nc2c(OCc3ccc(Cl)cc3)cccn2c1N(C=O)Cc1ccccc1", "Potency": "inconclusive [inhibitor, partial curve, poor fit]"}, {"smiles": "Cc1cc(C(F)(F)F)nc2c(Cl)c(C(C)(C)C)nn12", "activity change, negative = growth inhibition": "inactive: 19.8%"}, {"smiles": "Cc1ncc(C[n+]2csc(CCOC(=O)CC3C4CC5CC(C4)CC3C5)c2C)c(N)n1", "note": "(configuration not stated)", "activity change, negative = growth inhibition": "inactive: -6.33%"}, {"smiles": "CCOc1ccc(C(=S)NC2CCCCC2)cc1OCC", "Potency": "inconclusive [inhibitor, single point]"}]}]}
